{
  "source": "PubChem BioAssay AID651820",
  "about": "(National Center for Advancing Translational Sciences (NCATS), 2012)",
  "note": "In all, about 340,000 compounds went through this assay and about 12,000 (3.5%) were called active. Inconclusive means that the source gave no clear call. Such entries were picked first, then a sample of the others. Calls come from the whole dose curve; as a rule, active = well fitted inhibition curve with a large enough effect; inconclusive = small, poorly fitted or top-dose-only effect, or another doubt; inactive = no such curve, though single readings can be large or run the other way. Potencies of inconclusive entries are left out as doubtful fits. Potency is the fitted concentration of half-maximal effect; tags give direction and shape of the fitted curve.",
  "data": [
    {"assay": "qHTS Assay for Inhibitors of Hepatitis C Virus (HCV)", "conditions": "Huh7.5.1 HCVcc-Cre (HCVcc is cell-culture hepatitis C virus) infection, luciferase reporter, 44 h; series mostly up to 41.8 µM", "method_in_brief": "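Infectious HCVcc-Cre (~0.5 moi) was added to cells just after compound, with cells seeded 4 h earlier at 1,000 per well. Luciferase activity after 44 h culture reported infection; substrate was incubated 15 min at room temperature before reading.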", "values": [
      {"compound": "N#Cc1c(N)n(-c2ccccc2)c(=O)c2cc([N+](=O)[O-])ccc12", "Potency": "inconclusive [inhibitor, single point]"},
      {"compound": "Cc1nn(C)cc1C(=O)c1ccccc1", "Potency": "inconclusive [inhibitor, single point]"},
      {"compound": "O=C1CCN(CCc2ccccc2)CCN1[C@H](COc1ccccc1)c1ccccc1", "Potency": "inconclusive [inhibitor, full curve]"},
      {"compound": "Cc1ccc(CC(=O)Nc2ccncc2)cc1", "Potency": "active: 12.6 µM"},
      {"compound": "CC(C)CNC(=O)c1ccc(C2SCC(=O)N2Cc2ccccc2)cc1", "note": "(stereo unspecified)", "Potency": "inconclusive [inhibitor, partial curve]"},
      {"compound": "Cc1ccc(-n2c3nc(=O)[nH]c(=O)c-3cc3cc([N+](=O)[O-])ccc32)cc1C", "Potency": "active: 35.5 µM"},
      {"compound": "COCCCNc1ncnc2c1sc1nc(-c3ccco3)c3c(c12)CC(C)(C)OC3", "Potency": "inconclusive [inhibitor, partial curve]"},
      {"compound": "COc1ccc(C(=O)NCCN2CCCC2)cc1", "Potency": "inactive"},
      {"compound": "COCCOc1ccc(C(F)(F)F)cc1Nc1nc2ccccc2o1", "Potency": "active: 14.1 µM"},
      {"compound": "CSc1nsc(/C=C/Nc2ccc(C)c(C)c2)c1C#N", "Potency": "inconclusive [inhibitor, partial curve]"},
      {"compound": "CCN1/C(=C/C(=O)c2ccco2)Sc2ccccc21", "Potency": "inconclusive [inhibitor, single point]"},
      {"compound": "CCCNC(=O)c1ccc(N2CCC3(CC2)CC(c2ccccc2)=NO3)c(NC(=O)c2ccco2)c1", "Potency": "inconclusive [inhibitor, partial curve]"},
      {"compound": "Cc1ccc(Cl)cc1OCC(=O)NCCOC(=O)Nc1sc(=S)n(C)c1C", "Potency": "inconclusive [inhibitor, single point]"},
      {"compound": "COc1ccc2c(-c3ccccc3)cc3nnnn3c2c1", "Potency": "inconclusive [inhibitor, partial curve]"},
      {"compound": "c1ccc(-c2oc3ncnc(NCCN4CCOCC4)c3c2-c2ccccc2)cc1", "Potency": "inconclusive [inhibitor, partial curve]"},
      {"compound": "Cc1cc(OCCn2ccnc2)cc(C(C)C)c1", "Potency": "inconclusive [inhibitor, partial curve]"},
      {"compound": "Cc1cc(C)cc(OCC(=O)NNC(=O)c2ccccn2)c1", "Potency": "inconclusive [inhibitor, single point]"},
      {"compound": "O=C(C1CC1)N1CCc2cc(S(=O)(=O)NCc3ccccc3)ccc21", "Potency": "inconclusive [inhibitor, partial curve]"},
      {"compound": "CC(C)(C)c1ccc(C(=O)NCCC(=O)Nc2ccc3c(c2)OCCO3)cc1", "Potency": "inactive"},
      {"compound": "Cc1ccc2cccc(NC3OC(=O)c4ccccc43)c2n1", "note": "(stereo unspecified)", "Potency": "inconclusive [inhibitor, single point]"},
      {"compound": "CCOc1ccccc1NC(=O)C1COc2ccccc2O1", "note": "(stereo unspecified)", "Potency": "inactive"},
      {"compound": "COc1ccc(C[C@H]2CN3C(=NC[C@@H]3C(C)C)N2CCNC(=O)c2ccc(C)c(Br)c2)cc1", "Potency": "inactive"},
      {"compound": "CCOc1cc(C2NC(=O)N(C)C(C)=C2C(=O)OC)cc(Br)c1O", "note": "(stereo unspecified)", "Potency": "inconclusive [inhibitor, single point]"},
      {"compound": "O=C(CNC(=O)c1cccs1)OCc1c(F)cccc1Cl", "Potency": "inactive"},
      {"compound": "Cc1ccc([N+](=O)[O-])cc1-c1ccc(/C=C(\\C#N)c2[nH]nc(N)c2C#N)o1", "Potency": "inconclusive [inhibitor, partial curve, poor fit]"},
      {"compound": "COC(=O)c1ccc(NC(=O)c2cc(-c3ccncc3)nc3ccccc23)cc1", "Potency": "active: 10 µM"},
      {"compound": "C=CCOc1ccc(C2NC(=S)NC(c3ccccc3)=C2C(C)=O)cc1OC", "note": "(stereo unspecified)", "Potency": "inactive"},
      {"compound": "CC(C)CCn1c(CN(C)Cc2ccccc2)nc2c1c(=O)n(C)c(=O)n2C", "Potency": "inactive"},
      {"compound": "COc1ccccc1Cn1c(SCC#N)nc2cc(C(=O)N3CCC4(CC3)OCCO4)ccc2c1=O", "Potency": "inconclusive [inhibitor, partial curve]"},
      {"compound": "COc1ccc(/C=C2\\SC(=O)N=C2N)cc1OC", "Potency": "inactive"},
      {"compound": "Cc1ccccc1C(=O)N1CCc2cc(-c3csc(NC(=O)CN4CCCC4)n3)ccc21", "Potency": "inconclusive [inhibitor, partial curve]"},
      {"compound": "O=C(Nc1ccccc1N1CCCC1)c1cccnc1", "Potency": "inactive"},
      {"compound": "COc1ccc(CC(C)NCCC(c2ccccc2)c2ccccc2)cc1", "note": "(stereo unspecified)", "Potency": "inconclusive [inhibitor, single point]"},
      {"compound": "Cc1[nH]n(-c2ccc([N+](=O)[O-])cc2)c(=O)c1C=NCCc1c(C)[nH]c2ccccc12", "Potency": "inactive"},
      {"compound": "COc1cccc(/C=N/c2oc(-c3ccccc3)cc2C#N)c1O", "Potency": "inconclusive [inhibitor, single point]"},
      {"compound": "NC(=O)C1Cc2ccccc2CN1C(=O)c1cccc(Oc2ccccc2)c1", "note": "(stereo unspecified)", "Potency": "inconclusive [inhibitor, single point]"},
      {"compound": "O=C(Nc1cccc(F)c1)c1cccc(S(=O)(=O)N2CCOCC2)c1", "Potency": "inconclusive [inhibitor, partial curve]"},
      {"compound": "CCCOC(=O)c1ccc2c(c1)C(=O)N(c1ccccc1)C2=O", "Potency": "inactive"},
      {"compound": "COc1cc(OC)c(S(=O)(=O)Nc2ccc(C(=O)N3CCCC3)cc2)cc1NC(C)=O", "Potency": "inconclusive [inhibitor, single point]"},
      {"compound": "Cc1nn(-c2ccccc2)c(Cl)c1C1C(C#N)=C(N)OC2=C1C(=O)CC(C)(C)C2", "note": "(stereo unspecified)", "Potency": "inconclusive [inhibitor, single point]"},
      {"compound": "O=c1c2ccccc2nnn1CSc1nc2ccccc2[nH]1", "Potency": "inconclusive [inhibitor, partial curve]"},
      {"compound": "CC(C)Cn1c(N)c(C(=O)COC(=O)c2ccc(O)cc2O)c(=O)n(C)c1=O", "Potency": "inconclusive [inhibitor, single point]"},
      {"compound": "O=C(Nc1cccc(S(=O)(=O)N2CCCCC2)c1)C1CCCN1S(=O)(=O)c1ccccc1F", "note": "(stereo unspecified)", "Potency": "inconclusive [inhibitor, single point]"},
      {"compound": "CCC/C(=N/Nc1ccc(Cl)cc1)c1cnnc(-c2ccccc2)n1", "Potency": "active: 14.1 µM"},
      {"compound": "CCCCC(=O)Nc1cc(C)c(NC(=O)c2ccco2)cn1", "Potency": "inactive"},
      {"compound": "CCOC(=O)c1nc(Nc2ccc(C)cc2)c2ccccc2n1", "Potency": "inconclusive [inhibitor, partial curve]"}
    ]}
  ]
}
